# Source: the supplement of paper PMC8728848
# This is one part of the list.
# B1: PX14375F-bfa-539-21-539 (Bacteroides fragilis) (protein)
# chain: EDFLQKDPPSSPSQSVFWQKKSDFESALAGTYSVMYSGVFSQIMPCLDGLTDNAIVQHSEGTYGWAKTIAQGDLTPNQGGFVTDIYGNCYKGIARVHILMEQLDQYTGSDISADEKKFMLAQCKALRGYFYSWLYQCYKEVPVVTQSLDLNTMYQPKATRAEVLNRVMTDYDEAISELPDKLYSDSQTSGRFTVSAVKALKARILLFDAYDSNGKAISSKMEEVLTLLQSIKGYSLAARVRDNFISEKQLASPEIMFSVRFLRPNLTHSMDLYYGAWAVLDPTRNMVDAFECTDGKPWGESPLTVRPDESILYGNDDALKKAERAKMFMNRDRRLYESVNHSMMANFVDDGFKDEEVQVNESNNKGPTGFSALKYVQPTDVTPGYSTVSDADIVVLRYAHVLLMIAEAENEAHGATTTALNAINEVRTRSGQPAIEAGISQDDLRERIRNEWRIETCFEGLRYFQLKRWKLMDKRVNGVEDPAYPGYIKVYKPAFEFFPIPQSEIDKAGGVLKQDPAYE
# What was measured:
# Assay in all cases: glycan array binding signal (z-score within array); higher = stronger binding
# Conditions in all cases: glycan notation: IUPAC condensed, linker removed
# [1] = target: GalNAc3S(b1-4)[Fuc(a1-3)]GlcNAc
# How it was run: (§1)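 Glycan array data were curated from 3228 arrays in the Consortium for Functional Glycomics database and kept only where the protein sequence was available. Glycan names were converted to IUPAC-condensed notation, and columns mapping to the same glycan were averaged. The binding signal is a within-array Z-score, averaged across arrays of the same protein sequence at different concentrations or buffers and across linkers. Negative Z-scores can be read as non-binding.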
# GalNAc4S6S(b1-4)GlcNAc = target: GalNAc4S6S(b1-4)GlcNAc
# How it was run: as §1
# GalNAc6S(b1-4)GlcNAc = target: GalNAc6S(b1-4)GlcNAc
# How it was run: as §1
# Glc(a1-4)Glc = target: Glc(a1-4)Glc
# How it was run: as §1
# [2] = target: Glc(a1-4)Glc(a1-4)Glc(a1-4)Glc
# How it was run: as §1
# Glc(a1-6)Glc(a1-6)Glc = target: Glc(a1-6)Glc(a1-6)Glc
# How it was run: as §1
# [3] = target: Glc(a1-6)Glc(a1-6)Glc(a1-6)Glc
# How it was run: as §1
# Glc(b1-4)Glc = target: Glc(b1-4)Glc
# How it was run: as §1
# Glc(b1-6)Glc = target: Glc(b1-6)Glc
# How it was run: as §1
# GlcA(b1-3)Gal = target: GlcA(b1-3)Gal
# How it was run: as §1
# GlcA(b1-3)GlcNAc = target: GlcA(b1-3)GlcNAc
# How it was run: as §1
# GlcA(b1-6)Gal = target: GlcA(b1-6)Gal
# How it was run: as §1
# [4] = target: GlcA3S(b1-3)Gal(b1-4)GlcNAc(b1-2)Man
# How it was run: as §1
# [5] = target: GlcA3S(b1-3)Gal(b1-4)GlcNAc(b1-3)Gal(b1-4)Glc
# How it was run: as §1
# [6] = target: GlcNAc(a1-3)Gal(b1-4)GlcNAc
# How it was run: as §1
# [7] = target: GlcNAc(a1-4)Gal(b1-3)GlcNAc
# How it was run: as §1
# [8] = target: GlcNAc(a1-4)Gal(b1-4)GalNAc
# How it was run: as §1
# [9] = target: GlcNAc(a1-4)Gal(b1-4)GlcNAc
# How it was run: as §1
# [10] = target: GlcNAc(a1-4)Gal(b1-4)GlcNAc(b1-3)Gal(b1-4)Glc
# How it was run: as §1
# [11] = target: GlcNAc(a1-4)Gal(b1-4)GlcNAc(b1-3)Gal(b1-4)GlcNAc
# How it was run: as §1
# [12] = target: GlcNAc(a1-4)Gal(b1-4)GlcNAc(b1-3)Gal(b1-4)GlcNAc(b1-3)Gal(b1-4)GlcNAc
# How it was run: as §1
# [13] = target: GlcNAc(a1-4)Gal(b1-4)GlcNAc(b1-3)Gal(b1-4)[Fuc(a1-3)]GlcNAc(b1-3)Gal(b1-4)[Fuc(a1-3)]GlcNAc
# How it was run: as §1
# [14] = target: GlcNAc(a1-6)Gal(b1-4)GlcNAc
# How it was run: as §1
# [15] = target: GlcNAc(b1-2)Gal(b1-3)GalNAc
# How it was run: as §1
# [16] = target: GlcNAc(b1-2)Man(a1-3)[GlcNAc(b1-2)Man(a1-6)]Man(b1-4)GlcNAc(b1-4)GlcNAc
# How it was run: as §1
# [17] = target: GlcNAc(b1-2)Man(a1-3)[GlcNAc(b1-2)Man(a1-6)]Man(b1-4)GlcNAc(b1-4)[Fuc(a1-6)]GlcNAc
# How it was run: as §1
# [18] = target: GlcNAc(b1-2)Man(a1-3)[GlcNAc(b1-4)][GlcNAc(b1-2)Man(a1-6)]Man(b1-4)GlcNAc(b1-4)GlcNAc
# How it was run: as §1
# [19] = target: GlcNAc(b1-2)Man(a1-3)[GlcNAc(b1-4)][GlcNAc(b1-2)Man(a1-6)]Man(b1-4)GlcNAc(b1-4)[Fuc(a1-6)]GlcNAc
# How it was run: as §1
# [20] = target: GlcNAc(b1-2)[GlcNAc(b1-4)]Man(a1-3)[GlcNAc(b1-2)Man(a1-6)]Man(b1-4)GlcNAc(b1-4)GlcNAc
# How it was run: as §1
# [21] = target: GlcNAc(b1-2)[GlcNAc(b1-4)]Man(a1-3)[GlcNAc(b1-4)][GlcNAc(b1-2)Man(a1-6)]Man(b1-4)GlcNAc(b1-4)GlcNAc
# How it was run: as §1
# [22] = target: GlcNAc(b1-2)[GlcNAc(b1-4)]Man(a1-3)[GlcNAc(b1-4)][GlcNAc(b1-2)[GlcNAc(b1-6)]Man(a1-6)]Man(b1-4)GlcNAc(b1-4)GlcNAc
# How it was run: as §1
# [23] = target: GlcNAc(b1-2)[GlcNAc(b1-4)]Man(a1-3)[GlcNAc(b1-4)][GlcNAc(b1-2)[GlcNAc(b1-6)]Man(a1-6)]Man(b1-4)GlcNAc(b1-4)[Fuc(a1-6)]GlcNAc
# How it was run: as §1
# [24] = target: GlcNAc(b1-2)[GlcNAc(b1-6)]Man(a1-6)[GlcNAc(b1-2)Man(a1-3)]Man(b1-4)GlcNAc(b1-4)GlcNAc
# How it was run: as §1
# [25] = target: GlcNAc(b1-2)[GlcNAc(b1-6)]Man(a1-6)[GlcNAc(b1-2)Man(a1-3)]Man(b1-4)GlcNAc(b1-4)[Fuc(a1-6)]GlcNAc
# How it was run: as §1
# [26] = target: GlcNAc(b1-2)[GlcNAc(b1-6)]Man(a1-6)[GlcNAc(b1-4)][GlcNAc(b1-2)Man(a1-3)]Man(b1-4)GlcNAc(b1-4)GlcNAc
# How it was run: as §1
# GlcNAc(b1-3)Fuc = target: GlcNAc(b1-3)Fuc
# How it was run: as §1
# GlcNAc(b1-3)Gal = target: GlcNAc(b1-3)Gal
# How it was run: as §1
# [27] = target: GlcNAc(b1-3)Gal(b1-3)GalNAc
# How it was run: as §1
binder,measurement,setting,value
B1,glycan array binding signal (z-score),[1],-0.582
same,glycan array binding signal (z-score),GalNAc4S6S(b1-4)GlcNAc,-0.372
same,glycan array binding signal (z-score),GalNAc6S(b1-4)GlcNAc,-0.468
same,glycan array binding signal (z-score),Glc(a1-4)Glc,-0.438
same,glycan array binding signal (z-score),[2],0.379
same,glycan array binding signal (z-score),Glc(a1-6)Glc(a1-6)Glc,-0.35
same,glycan array binding signal (z-score),[3],-0.24
same,glycan array binding signal (z-score),Glc(b1-4)Glc,-0.514
same,glycan array binding signal (z-score),Glc(b1-6)Glc,0.021
same,glycan array binding signal (z-score),GlcA(b1-3)Gal,-0.214
same,glycan array binding signal (z-score),GlcA(b1-3)GlcNAc,-0.113
same,glycan array binding signal (z-score),GlcA(b1-6)Gal,0.504
same,glycan array binding signal (z-score),[4],-0.346
same,glycan array binding signal (z-score),[5],1.49
same,glycan array binding signal (z-score),[6],0.187
same,glycan array binding signal (z-score),[7],0.204
same,glycan array binding signal (z-score),[8],-0.334
same,glycan array binding signal (z-score),[9],0.011
same,glycan array binding signal (z-score),[10],-0.394
same,glycan array binding signal (z-score),[11],-0.433
same,glycan array binding signal (z-score),[12],-0.081
same,glycan array binding signal (z-score),[13],0.867
same,glycan array binding signal (z-score),[14],1.9
same,glycan array binding signal (z-score),[15],0.055
same,glycan array binding signal (z-score),[16],0.266
same,glycan array binding signal (z-score),[17],-0.47
same,glycan array binding signal (z-score),[18],0.017
same,glycan array binding signal (z-score),[19],-0.471
same,glycan array binding signal (z-score),[20],-0.105
same,glycan array binding signal (z-score),[21],0.443
same,glycan array binding signal (z-score),[22],-0.063
same,glycan array binding signal (z-score),[23],-0.643
same,glycan array binding signal (z-score),[24],0.13
same,glycan array binding signal (z-score),[25],-0.427
same,glycan array binding signal (z-score),[26],0.044
same,glycan array binding signal (z-score),GlcNAc(b1-3)Fuc,-0.513
same,glycan array binding signal (z-score),GlcNAc(b1-3)Gal,-1.02
same,glycan array binding signal (z-score),[27],-0.429
